# Laboratory results reported in PubChem BioAssay (NCATS).
# The inconclusive results got no clear call from the source; some entries with a clear call stand among them for comparison. Potencies of inconclusive entries are left out as doubtful fits. Calls of active or inactive are those of the source. Calls come from the whole dose curve; as a rule, active = well fitted inhibition curve with a large enough effect; inconclusive = small, poorly fitted or top-dose-only effect, or another doubt; inactive = no such curve, though single readings can be large or run the other way.
# Target: DNA polymerase eta (Homo sapiens) (UniProt Q9Y253)
# Experiment: qHTS for Inhibitors of Polymerase Eta: Confirmatory Assay for Cherry-picked Compounds (AID 720502)
# Conditions: Pol eta primer extension, TAMRA/BHQ fluorescence, 10 min
# Procedure, shortened: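 Quenched-fluorescence replication assay: 10 nM Pol eta, 50 nM substrate final, 15 min compound preincubation at room temperature, 10 min kinetic reaction read at 525/598 nm.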
# Potency is the fitted concentration of half-maximal effect; tags give direction and shape of the fitted curve.
# Chain of UniProt Q9Y253 (Q9Y253 whole entry, looked up): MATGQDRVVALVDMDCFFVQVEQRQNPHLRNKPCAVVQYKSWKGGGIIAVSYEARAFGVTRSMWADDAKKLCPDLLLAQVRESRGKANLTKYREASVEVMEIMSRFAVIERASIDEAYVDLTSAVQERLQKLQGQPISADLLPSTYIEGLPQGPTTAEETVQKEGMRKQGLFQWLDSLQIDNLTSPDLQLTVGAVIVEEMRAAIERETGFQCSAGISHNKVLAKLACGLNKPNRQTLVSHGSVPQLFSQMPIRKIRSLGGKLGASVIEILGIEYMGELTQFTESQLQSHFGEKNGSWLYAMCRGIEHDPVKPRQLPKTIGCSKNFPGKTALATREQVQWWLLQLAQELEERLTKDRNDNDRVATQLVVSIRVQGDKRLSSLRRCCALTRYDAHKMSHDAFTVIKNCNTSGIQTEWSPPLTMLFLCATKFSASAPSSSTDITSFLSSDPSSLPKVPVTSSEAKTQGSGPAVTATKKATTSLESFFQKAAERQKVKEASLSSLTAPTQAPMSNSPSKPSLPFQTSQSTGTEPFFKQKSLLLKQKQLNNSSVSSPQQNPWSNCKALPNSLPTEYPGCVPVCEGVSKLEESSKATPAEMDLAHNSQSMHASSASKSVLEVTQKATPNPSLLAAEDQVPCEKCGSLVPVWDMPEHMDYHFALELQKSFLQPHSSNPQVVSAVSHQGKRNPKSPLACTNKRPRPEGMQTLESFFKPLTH
row,SMILES,Potency
1,O=C(NCc1ccc2c(c1)OCO2)c1cc2ncc(Br)cn2n1,"inconclusive [inhibitor, single point]"
2,O=C(COc1ccccc1)NCCSCc1ccco1,"inconclusive [inhibitor, single point]"
3,CCCCOc1ccc(C(=O)N(Cc2ccco2)Cc2ccco2)cc1,active: 53.6 µM
4,CC(=O)C(=Cc1ccc(C(=O)O)cc1)C(C)=O,"inconclusive [inhibitor, single point]"
5,Cc1cc(C)c2c(c1)NC(C(=O)O)C1CC=CC21 (stereo not drawn),active: 23.9 µM
6,Cc1c(C(=O)O)cccc1-c1ccc(/C=N/n2cnnc2)o1,active: 47.8 µM
7,Cc1oc(C(=O)O)cc1CSCc1ccoc1C(=O)O,active: 30.1 µM
8,Cc1ccc(S(=O)(=O)/N=C2/NC(=O)/C(=C/c3ccc(Br)o3)S2)cc1,"inconclusive [inhibitor, single point]"
9,Cc1ccc(CNC(=O)CSc2nc(=O)n3ccc(C)cc3n2)cc1,"inconclusive [inhibitor, single point]"
10,O=C(/C=C/c1ccco1)c1cccnc1,active: 30.1 µM
11,COc1ccc(OC)c(CCNC(=O)c2ccc3c(=O)[nH]c4c(C(=O)NC(C)C)sc(=S)n4c3c2)c1,active: 42.6 µM
12,NS(=O)(=O)c1ccc(NC(=S)NC(=O)/C=C/c2ccco2)cc1,"inconclusive [inhibitor, partial curve, poor fit]"
13,O=C(Nc1ccc2nc(-c3ccco3)c(-c3ccco3)nc2c1)N1CCN(c2ccccn2)CC1,"inconclusive [inhibitor, single point]"
